According to the supplement of paper PMC4723716:
± gives the uncertainty stated by the source. In all, about 9,900 compounds were measured (“viability index relative to DMSO control”: median about 1, lowest 2% from about 0.85 on). This is one part of the list.

These molecules were tested on Plasmodium falciparum NF54 stage V gametocytes (assay: viability index relative to DMSO control (fraction); higher = less gametocyte killing). Settings: 2.5 µM, library set: Broad Institute DOS, incubation time: 72 h.
Description: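 Broad DOS informer set and blood-stage-active DOS compounds screened in duplicate at 2.5 µM against P. falciparum NF54 stage V gametocytes with the serum-free one-step SaLSSA (1536-well): 72 h at 37 °C under low oxygen, then saponin lysis and MitoTracker Red CMXRos staining, with high-content imaging. Viability index = viable-object count divided by the plate mean of DMSO wells (0 = killed, about 1 = inactive).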
`COC(=O)[C@H]1N[C@H]2c3ccc(C4=CCCCC4)c(=O)n3C[C@H]2[C@@H]1CO` gave a viability index of 1.02 ± 0.04. `COCCN(C[C@H]1N[C@H](CO)[C@@H]1c1ccccc1)C(=O)NC1CCCC1` showed a viability index of 1.01 ± 0.013. For `O=C(NCC[C@H]1CC[C@@H](NC(=O)c2ccncc2)[C@H](CO)O1)Nc1ccc(Cl)cc1`, the viability index was 1.17 ± 0.023. For `CCCC(=O)Nc1ccc2c(c1)C(=O)N(C)C[C@@H](OC)[C@@H](C)CN(C(=O)c1ccccn1)[C@@H](C)CO2`, the viability index was 1.05 ± 0.019. In the case of `C/C=C/c1ccccc1[C@H]1[C@@H](C#N)N(c2nc(CC)cs2)[C@@H]1CO`, the viability index is reported as 1.18 ± 0.016. `CCCNC(=O)N1C[C@@]2(C1)CN([C@@H](CO)c1[nH]c3cc(OC)ccc3c21)C(=O)NC1CCCC1` showed a viability index of 1.04 ± 0.055. `CCS(=O)(=O)Nc1ccc2c(c1)C(=O)N(C)[C@@H]1CC[C@H](CC(=O)N3CCN(C)CC3)O[C@H]1CO2` showed a viability index of 1.07 ± 0.034. `C[C@H](CO)N1C[C@H](C)[C@@H](CN(C)C(=O)C2CCCCC2)OCCCC[C@H](C)Oc2ccc(NS(=O)(=O)c3ccccc3)cc2C1=O` gave a viability index of 1.05 ± 0.061. Molecule `O=C(C[C@H]1CC[C@@H]2[C@H](COC[C@@H](O)CN2S(=O)(=O)c2ccc(F)cc2)O1)NCCN1CCCCC1` has a viability index of 1.113 ± 0.0099. Molecule `CN(C)C(=O)c1cccc(-c2ccc([C@H]3[C@H]4CN(C(=O)C5CCC5)CC(=O)N4[C@H]3CO)cc2)c1` has a viability index of 1.04 ± 0.085. In the case of `N#C[C@H]1[C@@H](c2ccc(-c3ccccc3)cc2)[C@@H](CO)N1S(=O)(=O)Cc1ccccc1`, the viability index is reported as 0.991 ± 0.033. `O=C(C[C@H]1C=C[C@H](NC(=O)Nc2ccccc2F)[C@@H](CO)O1)NCc1ccc(-c2ccccc2)cc1` was tested, and the viability index was 1.07 ± 0.036. `N#C[C@H]1[C@H](c2ccc(-c3cccc(F)c3)cc2)[C@@H](CO)N1C(=O)NC1CCCC1` was tested, and the viability index was 1.108 ± 0.0084. In the case of `COc1ccc(NC(=O)N(C)C[C@@H]2OCCCC[C@H](C)Oc3ccc(NC(=O)c4ccncc4)cc3C(=O)N([C@H](C)CO)C[C@H]2C)cc1`, the viability index is reported as 0.99 ± 0.059. `COCC(=O)N1[C@H](C#N)[C@@H](c2ccccc2-c2ccccc2F)[C@H]1CO` showed a viability index of 1.18 ± 0.064. Molecule `CCCNC(=O)N(C)C[C@H]1Oc2ncc(C#CC3CCCCC3)cc2C(=O)N([C@H](C)CO)C[C@@H]1C` has a viability index of 1.05 ± 0.078. For `COCC#Cc1ccc([C@H]2[C@H](CO)N3C(=O)CN(C(=O)CN4CCOCC4)C[C@@H]23)cc1`, the viability index was 1.1 ± 0.053. For `COCCNC(=O)C[C@@H]1CC[C@H]2[C@H](COc3ccc(NS(=O)(=O)c4ccc(Cl)cc4)cc3C(=O)N2C)O1`, the viability index was 1.08 ± 0.037. In the case of `C[C@@H]1CN([C@H](C)CO)C(=O)c2cc(NS(=O)(=O)c3cn(C)cn3)ccc2O[C@H]1CN(C)C(=O)Nc1cccc2ccccc12`, the viability index is reported as 0.959 ± 0.032. Work on `CCCC(=O)Nc1ccc2c(c1)OC[C@@H](C)NC[C@H](C)[C@@H](OC)CN(C)C2=O` yielded a viability index of 1.04 ± 0.0082.
